The results in this text go back to the supplement of paper PMC10126150.

In this data set the test system is ATP. Kind of data set: switch fluorescence ratio, 500 uM ATP over buffer (Cy3 cluster intensity, sum of 5 cycles each) (fold (ratio)); higher = stronger signal-on switching upon ATP binding; sequences stand for … in TCGTCGGCAGCGTCAGATGTGTATAAGAGACAGTTTTTTTTTTTTTTTTTTTTTTTTT…TC. To be noted: aptamer strand: ATP DNA aptamer (quencher-CACCTGGGGGAGTATTGCGGAGGAAGG + anchor), 100 nM annealed; ATP concentration: 500 uM; one replicate. The procedure, abridged: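 Exposure to 500 uM ATP lasted 15 min at 22 °C before imaging, and a selection-buffer image was taken beforehand, for Cy3-labelled switching-strand clusters on a modified Illumina MiSeq flow-cell annealed to 100 nM quencher-labelled ATP aptamer. Five buffer/ATP cycles were run with NaOH stripping and re-annealing between them. The fluorescence ratio per cluster is summed target-cycle over summed buffer-cycle Cy3 intensity, averaged per switch-domain sequence. Clusters outside 100-1000 RFU were excluded.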

Sequences with one replicate were seen in a single cluster, so their values are uncertain.

Regarding TGCCGCAAGA, the switch fluorescence ratio amounted to 2.19.

As to CTTGGTTTCG, the switch fluorescence ratio was 0.992.

With CAACTGAGAT, the switch fluorescence ratio turned out to be 0.992.

Consider CCAAGGCGCG, for which the switch fluorescence ratio worked out at 1.02.

In the case of ACTTTGAAAA, the switch fluorescence ratio was 0.993.

For the sequence AGCATGGATT, the switch fluorescence ratio was determined as 1.02.

CGATCCCGAC: the switch fluorescence ratio amounted to 1.05.

With TGCGCGAACT, the switch fluorescence ratio worked out at 0.987.

Take TGTGCGGTCC: the switch fluorescence ratio was 1.69.

As to ACATACATCG, the switch fluorescence ratio worked out at 1.22.

For the sequence TGATTTGTAC, the switch fluorescence ratio amounted to 1.06.

Regarding TGGGCTCGGA, the switch fluorescence ratio came to 0.982.

As for GCCGTCGGTC, the switch fluorescence ratio was 1.

For ATGACGCCCC, the switch fluorescence ratio is 1.25.

As for CCTTGCAGTT, the switch fluorescence ratio worked out at 1.93.

As for TGTGATCCAA, the switch fluorescence ratio came to 0.981.

AGCGTAGCCG: the switch fluorescence ratio was 0.977.

Turning to CTCTTCGGTA, the switch fluorescence ratio stood at 1.04.

Regarding GCCGTGCCTA, the switch fluorescence ratio was 1.01.

AGTCTGTCAT: the switch fluorescence ratio was determined as 0.975.

With ATACTTGGGC, the switch fluorescence ratio was 0.987.

As to ACAGTTACAT, the switch fluorescence ratio came out at 1.15.

Consider TGGCCCGTA, for which the switch fluorescence ratio worked out at 1.06.

Take CCGTGGCGAC: the switch fluorescence ratio worked out at 2.

With TTCTAGAAGT, the switch fluorescence ratio was determined as 1.01.

Turning to AGTACATCCG, the switch fluorescence ratio turned out to be 0.972.

Turning to CGTTAAGCGT, the switch fluorescence ratio was 1.04.

Consider GCGCCCCGTT, for which the switch fluorescence ratio is 0.949.

As for ACCCGGCTGA, the switch fluorescence ratio came out at 1.01.

Turning to TTCCGCTGGC, the switch fluorescence ratio is 1.28.

In the case of TTAAAAGTCC, the switch fluorescence ratio stood at 1.1.

In the case of GGGGCCGGAA, the switch fluorescence ratio worked out at 0.998.

As to GCAGATCT, the switch fluorescence ratio came to 1.06.

For GCCTAGAAG, the switch fluorescence ratio came out at 0.966.

Turning to CGAGGGCGAA, the switch fluorescence ratio is 1.03.

On to GTATTCTGTG, for which the switch fluorescence ratio is 1.05.

TTTTTATGT: the switch fluorescence ratio was found to be 1.02.

As for CGTTTGCCAT, the switch fluorescence ratio came to 1.03.

ACTAATAATT: the switch fluorescence ratio came out at 1.

For the sequence GCGGTCTGTG, the switch fluorescence ratio is 1.01.

Take TACATCTGAG: the switch fluorescence ratio was found to be 1.04.

For TGCCCGGT, the switch fluorescence ratio stood at 0.998.

In the case of CCTGGGCTGC, the switch fluorescence ratio is 1.67.

CTAGGGGGGT: the switch fluorescence ratio was 0.979.

Consider TACGGTATG, for which the switch fluorescence ratio worked out at 1.08.

Regarding GATTCTCGCG, the switch fluorescence ratio is 0.996.

TACTCTAGTC: the switch fluorescence ratio amounted to 0.983.

For GGCTCTGGTG, the switch fluorescence ratio was determined as 1.24.

For the sequence ACGGCATACA, the switch fluorescence ratio worked out at 1.32.

For the sequence TTTTCGGCAG, the switch fluorescence ratio stood at 1.03.

Turning to GTTGGACTTA, the switch fluorescence ratio worked out at 1.01.

In the case of CGGACAGGAC, the switch fluorescence ratio worked out at 1.47.

For GTTAACTGCC, the switch fluorescence ratio stood at 1.08.

GTCTTTAGTA: the switch fluorescence ratio stood at 1.

In the case of CCTTTAGCG, the switch fluorescence ratio is 1.11.

On to AAAACTTCGA, for which the switch fluorescence ratio worked out at 0.951.

Consider CTTTGGCTCA, for which the switch fluorescence ratio was found to be 1.04.

With AGTCGGACGT, the switch fluorescence ratio was found to be 0.971.

In the case of CCTTCGGAGG, the switch fluorescence ratio came out at 1.13.

Regarding ATGGACCG, the switch fluorescence ratio is 1.05.

GCCATCTTAC: the switch fluorescence ratio amounted to 1.07.

For the sequence TTCCGCTGCT, the switch fluorescence ratio came to 1.11.

Take GGCACATGGT: the switch fluorescence ratio was found to be 0.984.

Consider GAATAGGCGG, for which the switch fluorescence ratio was 1.03.

For the sequence CAAGTGGGTT, the switch fluorescence ratio was found to be 1.02.

With CTGCTCGCTA, the switch fluorescence ratio was determined as 2.49.

On to ACGCATTTGA, for which the switch fluorescence ratio is 1.13.
